Out of some 220,000 compounds screened, about 16,000 (7.3%) were called active. The shares of active, inactive and inconclusive entries below differ from those in the screen. Calls come from the whole dose curve; as a rule, active = well fitted inhibition curve with a large enough effect (not every such curve was filed as active); inconclusive = small, poorly fitted or top-dose-only effect, or another doubt; inactive = no such curve, though single readings can be large or run the other way. A potency beside an inconclusive call is a rough fit, not a confirmed value.
target: Aldehyde dehydrogenase 1A1 (Homo sapiens) (UniProt P00352); assay: qHTS Assay for Inhibitors of Aldehyde Dehydrogenase 1 (ALDH1A1); conditions: Purified ALDH1A1, NADH fluorescence, propionaldehyde substrate; series mostly up to 75.3 µM
Chain of UniProt P00352 (P00352 whole entry, looked up): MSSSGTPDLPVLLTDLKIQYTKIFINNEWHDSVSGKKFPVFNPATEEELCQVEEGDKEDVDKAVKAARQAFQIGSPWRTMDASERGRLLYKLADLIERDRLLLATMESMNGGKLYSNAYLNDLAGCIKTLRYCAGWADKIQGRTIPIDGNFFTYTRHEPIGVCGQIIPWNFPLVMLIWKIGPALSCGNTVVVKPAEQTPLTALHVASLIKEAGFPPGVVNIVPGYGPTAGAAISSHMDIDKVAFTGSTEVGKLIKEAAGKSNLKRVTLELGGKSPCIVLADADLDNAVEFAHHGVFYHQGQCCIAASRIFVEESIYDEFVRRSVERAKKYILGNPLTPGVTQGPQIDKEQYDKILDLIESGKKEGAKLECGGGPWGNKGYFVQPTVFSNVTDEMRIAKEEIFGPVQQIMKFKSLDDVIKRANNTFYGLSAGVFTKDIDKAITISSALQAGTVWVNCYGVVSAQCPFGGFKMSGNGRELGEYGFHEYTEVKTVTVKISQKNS
Potency is the fitted concentration of half-maximal effect; tags give direction and shape of the fitted curve.

Potency, inconclusive:
Cn1c(=O)c2c(nc(NCc3ccc4c(c3)OCO4)n2Cc2ccccc2)n(C)c1=O 28.2 µM [inhibitor, single point]
CCN1C(=O)C(CC(=O)Nc2ccc(F)cc2)N(Cc2ccco2)C1=S (stereo not drawn) 8.91 µM [inhibitor, single point]
Oc1ccccc1CN1CCC(C(O)(c2ccccc2)c2ccccc2)CC1 14.1 µM [inhibitor, partial curve]
COc1cc(/C=N/NC(=O)CN(Cc2ccccc2)S(=O)(=O)c2ccc3c(c2)OCCO3)ccc1O 15.8 µM [inhibitor, partial curve]
CCN(CC)C(=S)SCC(=O)Nc1ccc(S(N)(=O)=O)cc1 35.5 µM [inhibitor, single point]
O=C(c1ccncc1)N(c1ccc2oc3c(c2c1)CCCC3)S(=O)(=O)c1cccc([N+](=O)[O-])c1 15.8 µM [inhibitor, partial curve, poor fit]
COc1ccc(C(=O)/C=C(\C)Nc2ccc3c(c2)OCO3)cc1 31.6 µM [inhibitor, single point]
O=C(CCN1CCc2ccccc2C1)Nc1ccc2c(c1)OCO2 15.8 µM [inhibitor, partial curve]
COC(=O)c1sc(N)c(C(=O)OC)c1COC(=O)CNS(=O)(=O)c1ccc(C)cc1 25.1 µM [inhibitor, partial curve]
Cn1cnc([N+](=O)[O-])c1Oc1ccccc1 39.8 µM [inhibitor, single point]
COc1ccc(NC(=O)CC2SC(=NCC3CCCO3)NC2=O)c([N+](=O)[O-])c1 (stereo not drawn) 39.8 µM [inhibitor, single point]
O=c1cnc2cnc(N3CCNCC3)nc2n1Cc1cccs1 39.8 µM [inhibitor, single point]
O=C(CSc1nc2cc(Cl)ccc2s1)Nc1cccc(S(=O)(=O)N2CCOCC2)c1 25.1 µM [inhibitor, single point]
CCc1ccccc1S(=O)(=O)Cc1ccc(C(=O)N2CCN(c3ccccn3)CC2)o1 25.1 µM [inhibitor, single point]
CCCCN(N=Nc1nonc1OC)c1nonc1OC 39.8 µM [inhibitor, single point]
COc1ccc(C(=O)c2oc3ccc(OC)cc3c2N)cc1 39.8 µM [inhibitor, single point]
COc1cccc(C2=CC(c3cccc(OC)c3OC)n3nnnc3N2)c1 (stereo not drawn) 28.2 µM [inhibitor, single point]
CCn1c(SCC(=O)N2CCN(c3ccccc3F)CC2)nnc1-c1ccoc1C 28.2 µM [inhibitor, partial curve]
O=C(CN1C(=O)/C(=C\c2cccc(F)c2)Oc2ccccc21)N1CCN(c2ccccn2)CC1 14.1 µM [inhibitor, partial curve]
O=C(Nc1ccc(-c2nc3cc(Cl)ccc3o2)cc1)C1CCCO1 (stereo not drawn) 39.8 µM [inhibitor, single point]
COc1cccc(C(=O)/C=C2\Sc3ccccc3N2C)c1 35.5 µM [inhibitor, single point]
COc1ccc(CNC(=O)C(C)N(Cc2ccco2)C(=O)c2snc(C(N)=O)c2N)cc1 (stereo not drawn) 25.1 µM [inhibitor, partial curve]
CCC(=O)N/N=C/c1ccc(-c2ccc(Cl)cc2)o1 25.1 µM [inhibitor, partial curve]
O=S(=O)(Nc1nc2c(s1)CCCC2)c1ccc(F)cc1 39.8 µM [inhibitor, single point]
CCC(O)CC(C(=O)NNc1ccccc1)C(=O)NNc1ccccc1 (stereo not drawn) 20 µM [inhibitor, partial curve]
O=C(CCN1C(=O)C2C3C=CC(C3)C2C1=O)N1CCN(c2ccccn2)CC1 (stereo not drawn) 39.8 µM [inhibitor, single point]
Cc1cc(N/N=C/c2ccco2)c2ccccc2n1 39.8 µM [inhibitor, single point]
COc1ccc(C(=O)N/N=C/c2ccc3cccc(OCc4ccccc4)c3n2)cc1 31.6 µM [inhibitor, partial curve]
COCCn1c(=O)c(-c2cc(F)cc(F)c2)nc2cnc(OC)nc21 28.2 µM [inhibitor, partial curve]
COc1ccc(NC(=S)N(Cc2ccccn2)Cc2ccccc2Cl)cc1 31.6 µM [inhibitor, partial curve]
Cc1cc(/C=C2\SC(=S)NC2=O)c(C)[nH]1 39.8 µM [inhibitor, single point]
CCOC(=O)c1[nH]ncc1CN1CCCC(C(=O)c2cc(Cl)ccc2OC)C1 (stereo not drawn) 31.6 µM [inhibitor, single point]
Cn1c(CN2CCN(C(=O)c3ccccc3)CC2)nc2cc([N+](=O)[O-])ccc21 25.1 µM [inhibitor, partial curve]
CC1(C)Cc2c(C#N)c(SCc3nc4ccccc4[nH]3)nc(N3CCOCC3)c2CO1 39.8 µM [inhibitor, single point]
COCCn1c(=O)c(-c2cccc(C#N)c2)nc2cnc(Oc3ccccc3)nc21 25.1 µM [inhibitor, single point]
CC1=CC(C)(C)Nc2ccc(C)cc21 39.8 µM [inhibitor, single point]
COc1ccc(C2CC(c3cccs3)n3nc(N)nc3N2)cc1 (stereo not drawn) 39.8 µM [inhibitor, single point]
Cc1cc(C)c(NC(=S)NCC2CCN(C(C)c3ccccc3)C2)c(C)c1 (stereo not drawn) 39.8 µM [inhibitor, single point]
Cc1c(N=C2N=C(NC(=O)c3ccc(F)cc3)c3ccccc32)c(=O)n(-c2ccccc2)n1C 25.1 µM [inhibitor, single point]
COc1cc(OC)cc(N(C(=O)c2ccco2)C(C(=O)NC2CCCC2)c2ccc(N(C)C)cc2)c1 (stereo not drawn) 39.8 µM [inhibitor, single point]
Cc1ccc(-c2ccc(CCC(=O)O)o2)cc1 35.5 µM [inhibitor, single point]
COc1ccc(Oc2ncc3nc(-c4cc(F)cc(F)c4)c(=O)n(C[C@H]4CCCO4)c3n2)cc1 39.8 µM [inhibitor, single point]
O=C(Cc1ccccc1)Nc1ccc2oc(-c3ccncc3)nc2c1 35.5 µM [inhibitor, single point]

Potency, inactive:
COc1ccc(CC(C(=O)Nc2cccc(F)c2)c2nn[nH]n2)c(OC)c1 (stereo not drawn)
CCN(CC#CCC(O)(c1ccccc1)C1CCCC1)C(C)C (stereo not drawn)
CCOc1cc(-c2nn3cnnc3s2)cc(OCC)c1OCC
O=C(COc1nncc2ccccc12)NCC(F)(F)F
Cc1cc(C)nc(N/N=C/C(Cl)=C/c2ccccc2)n1
COc1ccc(NS(=O)(=O)c2ccc(NC(C)=O)cc2)cc1OC
Cc1ccc(SC/C(O)=C(\C#N)c2nc3ccccc3s2)cc1
COc1ccc(-c2ccc(C#N)c(SCC(=O)Nc3sc4c(c3C#N)CCC4)n2)cc1OC
CCOc1ccc(NC(=S)NCc2cccnc2)cc1
Cc1ccc(C(=O)N2CCCCCC2)cc1Br
CC1(C)NC(=O)N(CC(O)COC2CCCCC2)C1=O (stereo not drawn)
CCC(=O)NC(=S)Nc1ccccc1C(=O)OC
C=CCSC1=NN2CCS(=O)(=O)N=C2S1
COc1cc(CNCc2ccc(OC)c(OC)c2OC)cc(OC)c1
Cc1ccc(CN2C(=O)CNC2=S)cc1
COC(=O)c1nn(-c2cccc(C(F)(F)F)c2)c(=O)cc1Sc1ccccn1
Cc1sc2nc(-c3ccccn3)[nH]c(=O)c2c1-c1ccccc1
CC(=O)N/C(=C\c1ccccc1)C(=O)NCc1ccc2c(c1)OCO2
COC(=O)C(C(C)=O)C(NC(=O)OC(C)(C)C)c1ccccc1 (stereo not drawn)

Potency, active:
COC(=O)c1c(NC(=O)Cc2cccs2)sc2c1CCC(C)C2 (stereo not drawn) 14.1 µM
COc1ccc(OC)c(C2CC(=O)N3CN(c4ccc(C)c(Cl)c4)CSC3=C2C#N)c1 (stereo not drawn) 7.94 µM
O=C(/C=C/c1cn(CC(O)CN2CCCCC2)c2ccccc12)c1cccs1 (stereo not drawn) 14.1 µM
CN(C)c1ccc(N2C(=O)CSC2=S)cc1 2.24 µM
O=C(c1ccccc1Br)N1CCN(c2ccc([N+](=O)[O-])c(N3CCOCC3)c2)CC1 7.94 µM
Cn1c(=O)c2c(nc(N3CCCCC3)n2CCSc2nc3ccccc3s2)n(C)c1=O 28.2 µM
Cc1noc(C)c1CSc1nc2ccccc2c(=O)n1-c1ccccc1 4.47 µM
S=C(c1ccc(N2CCCC2)cc1)N1CCCCC1 20 µM
N#C/C(=C/c1ccc([N+](=O)[O-])cc1)C(=O)Nc1ccccc1O 7.94 µM
COc1ccc(C(=O)NCC(=O)N=Nc2c(O)n(Cc3ccccc3)c3ccccc23)cc1OC 17.8 µM
O=C(N=Nc1c(O)n(Cc2ccccc2)c2ccccc12)c1ccc(O)cc1 12.6 µM
